Test results as given in publication PMC12136788.
The other results are listed elsewhere or left out.

T1: UNK ZnF1-3 (human, UniProt Q9C0B0 31-174)
T1 sequence: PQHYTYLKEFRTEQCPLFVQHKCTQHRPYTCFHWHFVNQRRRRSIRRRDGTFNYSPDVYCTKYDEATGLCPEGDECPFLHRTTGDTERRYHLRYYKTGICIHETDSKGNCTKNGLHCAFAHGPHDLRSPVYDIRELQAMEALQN

B1: chr12:121861850:121861851:+_ENSG00000170633_ENST00000361234|hu_mus|FALSE|FALSE (ssRNA)
RNA: GGGAGUUCUACAGUCCGACGAUCUAGCAACAAUGUUGAAACUUACAUUCAUUAAAUAUUAGCAUUUAAAAUAUACAUGGCUAAUCGAGUGAACAUUCAGAGCAGUUACGGCUCAGGAUAGUCCACACUACCCAGUCAUGACAGCAACAGAGGAUUGAGCAUCA
B2: 8415798_8415918_2908_CDS_ENSG00000133026_ENST00000269243|human|control|control (ssRNA)
RNA: GGGAGUUCUACAGUCCGACGAUCAUUUUGGAGGAUUUGGUUUCUUUCUUCUUCUUCUUCAACCCUAGACUCCAAGUCAUGUAGAAUCUCUUCUAAUUCCUGCUUUUUAGCAGCAAGUCUUGCCCUCAUCUCUUCUGCUUCAGCCAACAGAGGAUUGAGCAUCA
B3: chr8:122087627:122087628:-_ENSMUSG00000034189_ENSMUST00000036049|mus_hu|FALSE|FALSE (ssRNA)
RNA: GGGAGUUCUACAGUCCGACGAUCUAGUUACAAAAUAAUACUUUUCAGUAGUCUUUCUUGAUGCACAUUUAAAAACCAGCACAACUCCUCUAGUGAAAUGGUCAAUUUCCCUUAAAAAACAACAUCUGAAAUUAUAAGACCUGACAACAGAGGAUUGAGCAUCA
B4: 63459802_63460011_11422_CDS_ENSMUSG00000030451_ENSMUST00000076226|mouse|control|control (ssRNA)
RNA: GGGAGUUCUACAGUCCGACGAUCGCUGGCAGCUAGGGCGCUCAGCUGAGCACACGCAGCCAGAGAGGCAGCAAGGCGAGGGACGAUGCUUCUGUUGGAGGUGAGAUUGAGUCGGAAGUCCAAGAGACAGGUCACCAGGUCCAUCAACAGAGGAUUGAGCAUCA
B5: chr1:53517203:53517204:+_ENSG00000116171_ENST00000408941|hu_mus|motif|central (ssRNA)
RNA: GGGAGUUCUACAGUCCGACGAUCUCAGGAAGAGCUGUUUUAAUUUUCUUUUUAAAUCUUCCAAAAGCAUAUUUUUAUCCCAAACCGGAAUUAUAACAAAUAGCAUUAGAAUUAGAAAAACUUGGAAGAAAGAUAAAUGCAGACCAACAGAGGAUUGAGCAUCA
B6: chr9:95013113:95013114:-_ENSG00000196305_ENST00000443024|hu_hu|hu_hu_hu_mus_False|98_98 (ssRNA)
RNA: GGGAGUUCUACAGUCCGACGAUCCUCAGUCAGAAAGGGUGUGUAGGGGGCCAUCAGUCUGCACAGAGAAAGCAGGACACUGAACAGUGUCUCCAGAGCCAUGACACAGUCUUCCACCCCACUCUCACCCUUUAACCUCCUCCUCAACAGAGGAUUGAGCAUCA
B7: chr14:31337589:31337590:+_ENSMUSG00000021962_ENSMUST00000022535|mus_mus|FALSE|FALSE (ssRNA)
RNA: GGGAGUUCUACAGUCCGACGAUCAAUGACCUGUAUCAUAGAAACGAAGACACUUUUCAUUCAAAGAAUAUCUCAAAAUUACUAUUGCUGAAAUAAUCAAAUUCUACAUUAAAAUAUUACCAAACACCAUUACAUGCCAUAAAACAACAGAGGAUUGAGCAUCA
B8: 25965724_25965844_3665_3pUTR_ENSG00000143970_ENST00000336112|human|control|control (ssRNA)
RNA: GGGAGUUCUACAGUCCGACGAUCUUUUCAAGGCUUCAGUGGGGCUGCUUAGACAAAAACGAUCUUCAGGGUUUACAGAAUGGGUCCUCCUAAAGCUCUCUGAGCCCCGGCCGUAGGUAGAAAUAUUCAGUAAGUAGUGCCCUGCAACAGAGGAUUGAGCAUCA
B9: chrX:118797523:118797524:-_ENSG00000125354_ENST00000360156|hu_hu|FALSE|FALSE (ssRNA)
RNA: GGGAGUUCUACAGUCCGACGAUCCACGAUAGGCUUGUAGCUGUCCUCUUUGUUGAUCUGGUCCCCAAAGCCAACUGUGCUAACGAUCGUGAGCUUUAGCCUCACGUUGCUCUCUUGGAGGUCAUAGGUAUUAGACUGGAGCUGCAACAGAGGAUUGAGCAUCA
B10: chr5:128440902:128440903:+_ENSG00000066583_ENST00000173527|hu_mus|hu_hu_hu_mus_True|48_88 (ssRNA)
RNA: GGGAGUUCUACAGUCCGACGAUCUUGAACGGUGCUGCCAAGUCCUUUAGGGUAUUGUUCCGUUAUGAUAACUGGAAUCCCUAAGAUCCGGGCCCCUUGCAACAGUCUCUGUCCCACACUAAUGAUGUCCCCAAAGUAUUUGAUCAACAGAGGAUUGAGCAUCA
B11: chr11:118888195:118888196:-_ENSG00000118181_ENST00000527673|hu_hu|FALSE|FALSE (ssRNA)
RNA: GGGAGUUCUACAGUCCGACGAUCUUUAUAGUUGGGAACUUCCUUACAGAGUUUAUCAUAGGUAGCUUUGUCAAACAAGACUAAGUUAUUGAGCUUGUCCCGAACUUUGCCUUUGGACCACUUCUUCUUUUUGGCCUUGCCCCCCAACAGAGGAUUGAGCAUCA
B12: chr12:48362563:48362564:+_ENSG00000134291_ENST00000256686|hu_hu|hu_hu_hu_mus_False|28_28 (ssRNA)
RNA: GGGAGUUCUACAGUCCGACGAUCUCCGUCAAGCCCUUCGAUAGACCCUUGCGGGGGAAACUGUAAUCACUUUGUAUGGGGAAGGAAAAGAAACGCCAAAAACUUUCUUUCUUUCUUGGGUGGGGUGAGGCGGGAGGGGGAGGUCAACAGAGGAUUGAGCAUCA
B13: chr2:100011259:100011260:+_ENSG00000158417_ENST00000289371|hu_mus|FALSE|FALSE (ssRNA)
RNA: GGGAGUUCUACAGUCCGACGAUCGUAGUCCUGUCUGUAUUUUGUAAAGGCAUCAAAUAAGUGAUAAAUAAUUUCUGCACUAAAGAUUCUAACUCCCAAACUAUCAGCCAUCUCUUGUGCGUCCCGUUCAAUUCUUACAUCAAACAACAGAGGAUUGAGCAUCA
B14: chr9:100896081:100896082:-_ENSMUSG00000032527_ENSMUST00000035116|mus_hu|FALSE|FALSE (ssRNA)
RNA: GGGAGUUCUACAGUCCGACGAUCGUAGUUGAAGAAAUCCCGGAGAUUACACAAGGCAUCAACAUCAUUUUCAAAAGCUCUGUGGGCCACACCUGACAUGGUGGUGUGGGUCUUGGCACCACCGAGCUCCUCCUGGGUAACAUCCAACAGAGGAUUGAGCAUCA

Each binder was assayed against T1, UNK ZnF1-3 (assay: nsRBNS (natural sequence RNA bind-n-seq); RBNS binding buffer (assumed for nsRBNS): 25 mM Tris pH 7.5, 150 mM KCl, 3 mM MgCl2, 0.01% Triton X-100, 500 ug/ml BSA, 20 U/ml SUPERase-In, 4 C; UNK is unkempt and MSI1 is Musashi-1; names of the RNAs are library labels; protein concentration not given here; high values mean tight binding).
For B1, the binding signal was 0.586 enrichment R.
For B2, the binding signal was 0.424 enrichment R.
Work on B3 yielded a binding signal of 1.2 enrichment R.
Work on B4 yielded a binding signal of 1.31 enrichment R.
Work on B5 yielded a binding signal of 2.22 enrichment R.
Work on B6 yielded a binding signal of 0.954 enrichment R.
Binder B7 has a binding signal of 0.872 enrichment R.
B8 showed a binding signal of 1.44 enrichment R.
With B9 the binding signal was 0.737 enrichment R.
With B10 the binding signal was 0.704 enrichment R.
In the case of B11, the binding signal is reported as 0.642 enrichment R.
B12 was tested, and the binding signal was 1.17 enrichment R.
With B13 the binding signal was 2.43 enrichment R.
B14 was tested, and the binding signal was 0.962 enrichment R.
